Measured values published in article PMC4336329 (PLoS ONE, 2015).
The whole screen tested about 310,000 compounds, of which about 2,200 (0.71%) showed an effect of 50% or more. Effects have a minus sign here. This is one part of the list.

The compounds below were run against human ether-à-go-go-related gene (hERG) potassium channel (human, UniProt Q12809) (assay: primary screen, population patch clamp on CHO cells stably expressing hERG).
Sequence of human ether-à-go-go-related gene (hERG) potassium channel (Q12809 whole entry, looked up): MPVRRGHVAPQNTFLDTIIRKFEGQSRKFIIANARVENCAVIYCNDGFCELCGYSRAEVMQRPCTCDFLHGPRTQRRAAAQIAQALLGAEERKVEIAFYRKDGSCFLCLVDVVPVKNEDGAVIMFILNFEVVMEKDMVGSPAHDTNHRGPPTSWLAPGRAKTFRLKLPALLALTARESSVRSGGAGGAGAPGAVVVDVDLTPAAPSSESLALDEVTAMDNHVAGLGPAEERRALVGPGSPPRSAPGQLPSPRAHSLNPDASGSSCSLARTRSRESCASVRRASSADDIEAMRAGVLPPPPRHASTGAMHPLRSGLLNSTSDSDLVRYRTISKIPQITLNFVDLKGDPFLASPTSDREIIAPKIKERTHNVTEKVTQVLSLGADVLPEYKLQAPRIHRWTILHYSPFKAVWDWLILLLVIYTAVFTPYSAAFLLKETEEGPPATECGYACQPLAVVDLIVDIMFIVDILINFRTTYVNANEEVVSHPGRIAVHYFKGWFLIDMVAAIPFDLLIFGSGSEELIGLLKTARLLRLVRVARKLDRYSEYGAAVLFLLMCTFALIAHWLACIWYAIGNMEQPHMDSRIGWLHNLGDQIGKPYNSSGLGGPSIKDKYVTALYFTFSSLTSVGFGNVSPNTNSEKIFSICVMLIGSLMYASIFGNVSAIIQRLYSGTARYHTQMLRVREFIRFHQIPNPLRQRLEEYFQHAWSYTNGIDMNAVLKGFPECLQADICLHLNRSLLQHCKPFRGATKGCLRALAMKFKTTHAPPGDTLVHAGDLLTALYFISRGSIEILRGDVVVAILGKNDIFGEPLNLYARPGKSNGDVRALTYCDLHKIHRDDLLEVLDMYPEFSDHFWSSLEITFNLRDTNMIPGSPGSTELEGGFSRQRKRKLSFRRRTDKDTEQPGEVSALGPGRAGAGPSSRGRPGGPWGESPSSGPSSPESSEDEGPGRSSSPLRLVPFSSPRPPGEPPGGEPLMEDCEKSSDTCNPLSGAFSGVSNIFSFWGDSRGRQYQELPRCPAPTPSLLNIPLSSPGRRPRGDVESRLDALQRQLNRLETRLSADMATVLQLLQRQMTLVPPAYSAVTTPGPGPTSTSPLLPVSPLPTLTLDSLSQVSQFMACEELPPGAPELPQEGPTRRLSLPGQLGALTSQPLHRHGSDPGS

SMILES	hERG current change (%, negative = inhibition) at 1uM
CCN(CC)CCCNC(=O)c1[nH]c2ccccc2c1Sc1ccc(Cl)cc1	-48.1%
Cc1ccc(S(=O)(=O)N2CCN(C(=O)COC(=O)CCOc3cc(C)ccc3C)CC2)cc1	0.786%
O=C(O)Cc1ccc(NS(=O)(=O)c2ccccc2Br)cc1	16.7%
COc1cc(/C=N/NC(N)=S)ccc1OCc1ccc(C)cc1	9.09%
Cc1cccc(C(=O)O[C@@H]2[C@H](Cc3ccccc3)NS(=O)(=O)[C@H]3C[C@@H]4C=C[C@]23O4)c1	14.1%
CCOC(=O)C1=C(C)N(CCCC(=O)O)C(=O)NC1c1ccccc1OS(=O)(=O)c1ccccc1[N+](=O)[O-] (stereo not shown)	11.5%
CCOC(=O)C(CCCCCOc1ccccc1[N+](=O)[O-])C(=O)OCC	9.84%
COc1cc(Br)c(-c2sc(Nc3ccccc3)n[n+]2-c2ccc(F)cc2)cc1OC.[Cl-]	7.75%
Cc1ccc(C)c(-c2csc(NC(=O)C3=COCCO3)n2)c1	5.02%
CCOC(=O)c1c2n(c3ccc(O)cc13)CCC2	16.1%
Cc1cccc(NC(=S)NC2CCCC2)c1C	2.03%
N=C(N)Cc1ccccc1Sc1ccccc1.O=C(O)/C=C\C(=O)O	5.87%
CC(C)n1cc(/C=N/Nc2ccc(Cl)c(C(=O)O)c2)c2ccccc21	18.9%
O=C(CSc1nncc2ccccc12)Nc1ccccc1	8.55%
CC(C)CN(C(=O)COC(=O)c1ccc(Br)cc1)c1c(N)n(Cc2ccccc2)c(=O)[nH]c1=O	-0.63%
CC(=O)N1CCN(c2ccc(NC(=O)c3cccc(Cl)c3)cc2)CC1	0.608%
COc1ccc(C(=O)NCC(=O)N/N=C/c2ccc([N+](=O)[O-])o2)cc1OC	1.92%
Cc1cc(=O)[nH]c(=S)[nH]1	13.7%
OCCN(CCO)Cc1ccc(Br)cc1	9.17%
COc1ccc(/C=C2/SC(=O)N(CCNC(=O)CC(NC(C)=O)c3ccccc3)C2=O)cc1 (stereo not shown)	8.73%
CC(C)c1cc(C(N)=O)c(NC(=O)c2cccc(COc3ccc(Cl)cc3)c2)s1	11.6%
CCCNC(=O)c1cccc(C(F)(F)F)c1	10.3%
CCOCCCNC(=O)c1ccc(OC)cc1	19.5%
O=C(c1ccc(S(=O)(=O)Nc2ccccc2)cc1)N1CCCC(C(F)(F)F)C1 (stereo not shown)	9.22%
COc1ccc(NC(=O)CCC(=O)N/N=C/c2cn(C)nc2C)cc1	10.4%
Br.Cc1ccccc1Cn1ccc(=NCc2ccccc2)cc1	9.1%
O=C(CSc1ccccn1)Nc1ccc(Br)cn1	2.27%
CC(c1ccccn1)N(CCN(C)C)C(=S)Nc1ccccc1F (stereo not shown)	-2.6%

SMILES	hERG current change (%, negative = inhibition) at 1uM
CCOC(=O)N1CCN(S(=O)(=O)c2cc(OCC(=O)NC3CCCCC3)c(C)cc2Cl)CC1	-13.5%
COc1cccc(N(C(=O)c2snc(C(N)=O)c2N)C(C(=O)NCC2CCCO2)c2c[nH]c3ccccc23)c1 (stereo not shown)	1.83%
c1ccc(-c2csc(N3CCSCC3)n2)cc1	17.2%
Cc1ccc(/C=N/NC(=O)c2ccc(-n3cnnn3)cc2)cc1	11.8%
O=C(O)CNC(=O)c1ccc(Oc2c(F)c(F)c(Oc3ccc(C(=O)NCC(=O)O)cc3)c(F)c2F)cc1	7.26%
CN(Cc1ccccc1)C(=O)COc1ccc(-c2nnco2)cc1	16.6%
COc1ccc(C(=O)Nc2nnc(SCC(=O)NCC3CCCO3)s2)cc1OC (stereo not shown)	15.1%
CC(C)(C)c1ccc(OCCNCc2ccccc2)cc1.O=C(O)C(=O)O	10.9%
O=[N+]([O-])c1ccc(O)c2cccnc12	11.5%
CCCN(CC(=O)Nc1ccccc1OC)C(=O)c1ccc(=O)[nH]c1	9.6%
CC(=O)N1CCN(C(=O)COC(=O)CNC(=O)c2ccccc2C)CC1	11%
COC(=O)Cc1[nH]nc2c1C(c1cccc(OC)c1OC)C(C#N)=C(N)O2 (stereo not shown)	-5.2%
O=C(c1ccc2c(c1)N(Cc1ccc(F)cc1)C(=O)c1ccccc1S2(=O)=O)N1CCN(c2ccccn2)CC1	9.97%
CCCOC1CCCN(C(=O)c2ccc(OC)c(OC3CCN(C(C)C)CC3)c2)C1 (stereo not shown)	8.18%
C/C(=N\NS(=O)(=O)c1ccc(C)cc1)c1cc2ccccc2oc1=O	5.59%
O=Cc1cc2ccccc2nc1SCc1ccc(Cl)c(Cl)c1	2.75%
Cc1ccc(S(=O)(=O)N2CCN(C(=O)CSc3nc(N)cc(=O)[nH]3)CC2)c(C)c1	14.3%
O=C(CSc1ncn[nH]1)Nc1nc(-c2cccc([N+](=O)[O-])c2)cs1	3.46%
O=C1c2cccnc2C(O)N1Cc1cccs1 (stereo not shown)	-3.71%
COc1ccc2nc(C)cc(SCC(=O)NNC(=O)COc3ccc(C)cc3)c2c1	18.1%
N#CC1=C(N)OC2=C(C(=O)CCC2)C1Cc1ccccc1 (stereo not shown)	5.91%
Cc1cc(C)cc(N(C(=O)Cn2nnc3ccccc32)C(C(=O)NCc2ccco2)c2ccncc2)c1 (stereo not shown)	-6.28%
COc1ccc(C(=O)COC(=O)CCC(=O)c2cccs2)cc1	3.5%
O=C(c1cc(-c2ccncc2)nc2c(Cl)cccc12)N1CCN(c2ccccc2F)CC1	-23.3%
C/C(=N\N1CCN(Cc2ccc(Cl)cc2)CC1)c1ccc([N+](=O)[O-])cc1	-37.2%
CC(=O)Nc1ccc(S(=O)(=O)N2CCC3(CC2)CC(=O)c2ccccc2O3)cc1	-13.2%
COc1ccc(OCCN(C)C(=O)c2cccc(S(=O)(=O)N(C)c3ccccc3)c2)cc1	-6.1%
